Measurements: PubChem BioAssay (NCATS)
Inconclusive results, whose numbers are uncertain, are shown with a selection of clear calls. For some assays here: A potency beside an inconclusive call is a rough fit, not a confirmed value. Activity calls are given as the source filed them. Unless noted, calls follow the shape of the dose curve; as a rule, active = well fitted curve in the direction sought with a large enough effect; inconclusive = small, poorly fitted or top-dose-only effect, or another doubt; inactive = no such curve, though single readings can be large; an effect the other way counts as inactive or inconclusive.

Columns and labels:
[1] = molecular target: Aldehyde dehydrogenase, mitochondrial (Homo sapiens) (UniProt P05091); assay: qHTS for Inhibitors of the Aldehyde Dehydrogenase Family (ALDH2) Confirmatory screens (AID 2061303; active = well fitted inhibition curve with a large enough effect; inconclusive = small, poorly fitted or top-dose-only effect; inactive = no such curve, though single readings can be large or run the other way; title and protocol of this record describe different tests; also: nearly all actives have a fitted effect of over 45% in size; also: potency is read from the fitted curve at half-maximal effect; as to activity change, negative = inhibition: % is scaled to controls: 0 for no effect and ±100 for the full control effect); conditions: ALDH inhibition qHTS; activity change, negative = inhibition: at 45.4 µM (top of the series)
[2] = molecular target: Aldehyde dehydrogenase, mitochondrial (Homo sapiens) (UniProt P05091); assay: qHTS for Inhibitors of the Aldehyde Dehydrogenase Family (ALDH2) Validation screens (AID 2061302; active = well fitted inhibition curve with a large enough effect; inconclusive = small, poorly fitted or top-dose-only effect; title and protocol of this record describe different tests; also: potency is read from the fitted curve at half-maximal effect;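 as to activity change, negative = inhibition: plate controls were DMSO vehicle for no effect and maximal DPI positive control response for full effect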)
[3] = molecular target: Retinaldehyde dehydrogenase 3 (Homo sapiens) (UniProt P47895); assay: qHTS for Inhibitors of the Aldehyde Dehydrogenase Family (ALDH1A3) Validation screen (AID 2061312); conditions: ALDH1A3 enzyme inhibition qHTS validation, fluorescence; activity change, negative = inhibition: at 84.7 µM (top of the series); also: nearly all actives have a fitted effect of over 45% in size; also: potency is read from the fitted curve at half-maximal effect; as to activity change, negative = inhibition: % is scaled to controls: 0 for no effect and ±100 for the full control effect
[4] = BET inhibitor-based combinations targeting novel dependencies in MECOM-rearranged (r) AML: OCI-AML3 cell line (AID 2202232); conditions: CellTiter-Glo luminescence, 48 h; Potency: OCI-AML3 viability; viability (% of control): at 46 µM (top of the series); also: nearly all actives have a fitted effect of over 35% in size; also: potency is read from the fitted curve at half-maximal effect;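 as to viability (% of control): plate controls were DMSO vehicle wells for no effect and wells without cells for full effect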
Procedure, shortened: (§1)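 500 cells/well; 11-pt dose curve; 48 h, standard incubator; CellTiter-Glo luminescence after 15 min RT; DMSO/empty-well normalization; AUC plus Z-AUC (mean-centered within each line).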

[5] = BET inhibitor-based combinations targeting novel dependencies in MECOM-rearranged (r) AML: MV-4-11 cell line (AID 2202233); conditions: MV-4-11 AML viability, CellTiter-Glo luminescence, 48 h; viability, % of control: at 46 µM (top of the series) unless noted; also: nearly all actives have a fitted effect of over 45% in size; also: potency is read from the fitted curve at half-maximal effect;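 as to viability, % of control: plate controls were DMSO for no effect and blank wells for full effect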
Procedure, shortened: (§2)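 Cells were plated at 500 per well and exposed to each drug across an 11-point dose range for 48 hr at standard incubator conditions. Viability was read by CellTiter-Glo luminescence, and activity was expressed as AUC and per-cell-line Z-transformed AUC.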

[6] = BET inhibitor-based combinations targeting novel dependencies in MECOM-rearranged (r) AML: AML-191 cell line (AID 2202236; also: nearly all actives have a fitted effect of over 35% in size; also: potency is read from the fitted curve at half-maximal effect;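 as to viability (% of control): plate controls were vehicle wells for no effect and wells without cells for full effect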)
Procedure, shortened: as §1

[7] = BET inhibitor-based combinations targeting novel dependencies in MECOM-rearranged (r) AML: SET-2 cell line (AID 2202231); conditions: SET-2 AML cells viability, CellTiter-Glo luminescence, 48 h; viability: hits give low values, concentration not given here; also: nearly all actives have a fitted effect of over 35% in size; also: potency is read from the fitted curve at half-maximal effect;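 as to viability: plate controls were DMSO treated cells for no effect and wells without cells for full effect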
Procedure, shortened: as §1

[8] = BET inhibitor-based combinations targeting novel dependencies in MECOM-rearranged (r) AML: HNT-34 cell line (AID 2202234); also: nearly all actives have a fitted effect of over 35% in size; also: potency is read from the fitted curve at half-maximal effect;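 as to viability (% of control): plate controls were vehicle wells for no effect and cell-free wells for full effect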
Procedure, shortened: as §2

[9] = BET inhibitor-based combinations targeting novel dependencies in MECOM-rearranged (r) AML: UCSD-AML1 cell line (AID 2202235); conditions: UCSD-AML1 AML cells viability, CellTiter-Glo, 48 h; viability (% of control): at 46 µM (top of the series);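 also: plate controls were DMSO vehicle wells for no effect and blank wells for full effect; nearly all actives have a fitted effect of over 40% in size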
Procedure, shortened: as §2

[10] = BET inhibitor-based combinations targeting novel dependencies in MECOM-rearranged (r) AML: AML-194 cell line (AID 2202237; also: nearly all actives have a fitted effect of over 40% in size; also: potency is read from the fitted curve at half-maximal effect;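 as to viability (% of control): plate controls were vehicle wells for no effect and wells without cells for full effect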)
Procedure, shortened: as §1
Tags tell the direction and shape of the fitted curve.

COc1ccc(-c2ccc3ncn(Cc4ccccc4)c(=O)c3n2)cc1OC
Potency [1]: inconclusive: 2.51 µM [inhibitor, full curve, poor fit]

O=C(CN(c1cc(C(F)(F)F)ccc1Cl)S(=O)(=O)c1ccccc1)NCCc1ccccc1
Potency [1]: inconclusive: 15.8 µM [inhibitor, partial curve, poor fit]

COc1ccc(-c2cccc(C(=O)NCCc3ccc(F)cc3)c2)nn1
activity change, negative = inhibition [1]: inconclusive: -36.2% [inhibitor]

O=C(NCc1cccc(F)c1)c1nc2c(o1)CCN(Cc1cccc(F)c1F)CC2
Potency [1]: active: 31.6 µM

COc1cc(NS(C)(=O)=O)ccc1Nc1c2ccccc2nc2ccccc12
Potency [2]: inconclusive: 12.6 µM [inhibitor, single point] | Potency [3]: inconclusive: 3.55 µM [inhibitor, full curve] | Potency [4]: active: 0.372 µM | Potency [5]: active: 0.0661 µM | Potency [6]: active: 0.742 µM

COc1ccc(NC(=O)c2c(C)oc3ccn(Cc4ccc(F)cc4)c(=O)c23)c(OC)c1
activity change, negative = inhibition [1]: inconclusive: -100% [inhibitor]

CCC(=O)Nc1cccc(-c2cn3c(C)csc3n2)c1
Potency [1]: inactive

C[C@](N)(Cc1ccc(O)c(O)c1)C(=O)O
Potency [2]: inconclusive: 22.4 µM [inhibitor, single point] | Potency [3]: inconclusive: 3.55 µM [inhibitor, full curve, poor fit] | Potency [7]: inconclusive: 37.2 µM [inhibitor, single point] | Potency [5]: inconclusive: 2.35 µM [inhibitor, partial curve, poor fit] | Potency [6]: inconclusive: 29.5 µM [inhibitor, partial curve, poor fit]

Cc1ccc(S(=O)(=O)N2CCN(C3CCN(CCc4ccccc4)C3=O)CC2)cc1 (centres undefined)
Potency [1]: inactive

COc1ccc(-c2nc(CNS(=O)(=O)c3ccc(Br)cc3)cs2)cc1
Potency [1]: inconclusive: 31.6 µM [inhibitor, partial curve, poor fit]

CC1(C)NC(=O)N(c2ccc([N+](=O)[O-])c(C(F)(F)F)c2)C1=O
Potency [2]: inconclusive: 11.2 µM [inhibitor, partial curve, poor fit] | Potency [7]: inconclusive: 14.8 µM [inhibitor, partial curve, poor fit] | Potency [5]: inactive | Potency [8]: inactive | Potency [6]: inactive

COc1ccc(-c2c(NC(C)=O)sc3c2CCNC3)cc1
Potency [1]: inconclusive: 15.9 µM [inhibitor, partial curve]

Cn1c(=O)c2c(ncn2C)n(C)c1=O
Potency [2]: inactive | Potency [3]: inactive | Potency [4]: inactive | Potency [5]: inactive | Potency [9]: inactive | Potency [10]: inactive

C[C@]12CCC(=O)C=C1CC[C@@H]1[C@@H]2[C@@H](O)C[C@@]2(C)[C@H]1CC[C@]2(O)C(=O)CO
Potency [2]: inactive | Potency [4]: inactive | Potency [8]: inactive | Potency [10]: inactive

O=C1NC(=O)/C(=C/c2ccc3nccnc3c2)S1
Potency [2]: inconclusive: 11.2 µM [inhibitor, partial curve, poor fit] | Potency [3]: inconclusive: 17.8 µM [inhibitor, partial curve, poor fit] | viability [7]: inactive: 113% | Potency [4]: inconclusive: 9.34 µM [inhibitor, full curve, poor fit] | Potency [5]: inactive | Potency [8]: inactive

CC1=C(/C=C/C(C)=C/C=C/C(C)=C\C(=O)O)C(C)(C)CCC1
Potency [2]: inconclusive: 12.6 µM [inhibitor, partial curve, poor fit] | Potency [3]: inconclusive: 6.31 µM [inhibitor, full curve] | viability [7]: inactive: 102% | Potency [5]: inconclusive: 0.468 µM [inhibitor, full curve] | Potency [8]: inconclusive: 18.6 µM [inhibitor, partial curve] | Potency [6]: active: 5.25 µM

Cn1c(=O)c2sccc2n2c(CCCC(=O)Nc3ccc(F)c(F)c3)nnc12
Potency [1]: inactive

NNCCc1ccccc1
Potency [2]: inconclusive: 12.6 µM [inhibitor, partial curve, poor fit] | Potency [3]: inconclusive: 0.316 µM [inhibitor, full curve] | Potency [8]: inactive | Potency [6]: inconclusive: 18.6 µM [inhibitor, partial curve, poor fit]

CCOC(=O)c1ccccc1NC(=O)N1CCN(Cc2cc(=O)n3nc(-c4ccccc4)sc3n2)CC1
Potency [1]: inactive

CCOC(=O)c1ccc(NC(=O)c2nc(SCc3ccc(F)cc3)ncc2Cl)cc1
Potency [1]: inconclusive: 35.5 µM [inhibitor, single point]

CC(C)C(=O)Nc1ccc([N+](=O)[O-])c(C(F)(F)F)c1
Potency [2]: inactive | Potency [4]: inconclusive: 26.3 µM [inhibitor, partial curve, poor fit] | Potency [5]: inconclusive: 23.5 µM [inhibitor, single point] | Potency [8]: inactive

COc1cc(NS(=O)(=O)c2ccc(NC(=O)c3ccc(OC)c(Br)c3)cc2)nc(OC)n1
Potency [1]: inconclusive: 0.501 µM [inhibitor, partial curve, poor fit]

O=C(Nc1ccccc1)c1ccc(-c2cccc3c2CCNC3)o1
Potency [1]: inconclusive: 10 µM [inhibitor, partial curve, poor fit]

O=C(OCCN1CCOCC1)C1(c2ccccc2)CCCCC1
Potency [2]: inconclusive: 11.2 µM [inhibitor, partial curve] | Potency [3]: inconclusive: 3.16 µM [inhibitor, full curve]

COc1ccc(Cc2nccc3cc(OC)c(OC)cc23)cc1OC
Potency [2]: inconclusive: 11.2 µM [inhibitor, partial curve] | Potency [3]: inconclusive: 3.55 µM [inhibitor, partial curve] | Potency [6]: inconclusive: 8.33 µM [inhibitor, partial curve] | Potency [10]: inconclusive: 16.6 µM [inhibitor, partial curve]

CCc1c(C)sc(NC(=O)c2cc(-c3ccc(OC)cc3)on2)c1C#N
Potency [1]: inactive

Cc1c(NS(=O)(=O)c2cccc(C(=O)O)c2)c(=O)n(-c2ccccc2)n1C
Potency [1]: inactive

O=c1oc(Cl)c(Cl)c2ccccc12
Potency [2]: inconclusive: 2.82 µM [inhibitor, full curve] | Potency [3]: inconclusive: 0.891 µM [inhibitor, full curve]

Nc1ncnc2c1ncn2[C@@H]1O[C@H](CO)[C@@H](O)[C@H]1O
Potency [2]: inactive | Potency [4]: inactive | Potency [5]: inactive | Potency [10]: inactive

CCCN(CCC)S(=O)(=O)c1ccc2c(c1)N(CC(=O)NC(C)c1ccccc1)C(=O)CS2 (centres undefined)
Potency [1]: inactive
